This data set deals with PBMCs (CD11C, CD14, CD3, CD19 stained populations). As to conditions: healthy donor PBMCs, 36 hours incubation, FIG. 4.

The source of these data is patent US12578331B2, “Monolayer of PBMCs or bone-marrow cells and uses thereof” (Mobius Biotechnology GmbH, priority 2014, dated 2026).

SMILES strings stand for the structures.

On to `CCN(CC)Cc1ccc2cc(COC(=O)Nc3ccc(C(=O)NO)cc3)ccc2c1` [givinostat], for which the “drug-induced cell-population specific cytotoxicity” value was “may not be effective for B-cell derived cancers”.

For `Nc1ccn([C@@H]2O[C@H](CO)[C@@H](O)[C@@H]2O)c(=O)n1` [cytarabine], the “drug-induced cell-population specific cytotoxicity” value is “better target macrophages and dendritic cells, and B-cells to a lesser extent”.
